In all, about 44,000 compounds went through this assay and about 340 (0.77%) were called active. Roughly 5% stayed inconclusive and do not appear here. Calls follow the shape of the dose curve; as a rule, active = well fitted inhibition curve with a large enough effect; inconclusive = small, poorly fitted or top-dose-only effect; inactive = flat fitted curve, though single readings scatter. The list shows a part of the results.
Assay: Acumen qHTS Assay for Inhibitors of the mTORC1 Signaling Pathway in MEF (Tsc2-/-, p53-/-) Cells: Sytravon;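 also: plate controls were DMSO for no effect and rapamycin for full effect; nearly all actives have a fitted effect of over 50% in size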
Details: phospho-rpS6 immunofluorescence/PI, 24 h; series mostly up to 38.3 µM; activity change, negative = inhibition: at the top concentration
Outline: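 Immunofluorescence of rpS6 phosphorylation in Tsc2-/-, p53-/- MEFs after 24 h compound exposure, normalized to propidium iodide signal. Activity is expressed as % positive cells, thresholded with 7.5 nM rapamycin.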

Compound | activity change, negative = inhibition
CCc1ccc(N(CC)C(=O)Cn2nc(Cc3cccnc3)c3ccccc3c2=O)cc1 | inactive: -0.893%
CSc1ncc(C(=O)Nc2ccc(C)c(Cl)c2)c(-c2ccccc2)n1 | inactive: -5.56%
COc1ccc(Cl)cc1NC(=O)N(C)CCc1c(C)nn(C)c1C | inactive: 0%
COc1ccccc1NC(=O)c1oc2ccccc2c1NC(=O)COc1cccc(C)c1 | inactive: 1.23%
Cc1ccc2oc(-c3ccc(C)c(NC(=O)C(C)(C)Oc4ccc(Cl)cc4)c3)nc2c1 | inactive: 11.7%
c1coc(-c2nc3ccccn3c2Nc2ccc3c(c2)OCCO3)c1 | inactive: 3.86%
CCOc1ccc(NC(=O)CCS(=O)(=O)c2ccc3nc(C)sc3c2)cc1 | inactive: 1.9%
COc1cc(Cl)c(C)cc1NC(=O)c1cnn(-c2ccc(C)cc2)c1-n1cccc1 | inactive: -7.33%
Cc1ccc(Cn2c(SCc3ccc(C(=O)NCCc4ccccc4)cc3)nc3ccncc32)cc1 | inactive: -0.177%
Cc1nc(-c2ccc(C)c(N3CCN(C(=O)Nc4ccc(Br)cc4)CC3)c2)no1 | inactive: -21.1%
CCn1cc(S(=O)(=O)c2cccc(C)c2)c(=O)c2cc(F)c(N3CCCCC3C)cc21 (configuration not stated) | inactive: -13.1%
COc1ccc(-n2c(=O)c3sc4ccccc4c3n(CC(=O)N3CCCC3)c2=O)cc1 | inactive: 0.508%
COc1ccc(-c2cn3c(n2)sc2cc(C(=O)Nc4ccccc4F)ccc23)cc1 | inactive: 9.26%
COc1ccc(-n2c(SCC(=O)N3CCCc4ccccc43)nc3c([nH]c4ccccc43)c2=O)cc1 | inactive: -1.8%
CCc1ccc2occ(CC(=O)Nc3c(C(=O)Nc4ccc(Cl)cc4)oc4ccccc34)c2c1 | inactive: -2.24%
CN(C)CCNC(=O)c1ccc2nc(CCc3ccccc3)oc2c1 | inactive: -6.65%
Cc1ccc(CNC(=O)C(=O)NCC(c2cccs2)S(=O)(=O)c2cccs2)cc1 (configuration not stated) | inactive: 0.223%
CC(C)(C)OC(=O)N1CCC(c2c(C(=O)Nc3ccc4c(c3)OCO4)cnn2-c2ccc(F)cc2F)CC1 | inactive: -11.5%
Cc1cc(-c2ccc(C)c(S(=O)(=O)N(Cc3cccs3)C(C)C)c2)on1 | inactive: -6.26%
COc1ccc(NC(=O)/C(C#N)=C/c2ccc(C)o2)cc1 | inactive: 0.322%
O=C(O)CCCC(=O)N1CCc2cc(S(=O)(=O)NCc3ccccc3)ccc21 | inactive: -7.54%
Cc1cccc(NC(=O)CCNS(=O)(=O)c2ccc3c(c2)CCCC(=O)N3)c1C | inactive: 2.77%
CCOC(=O)c1[nH]c2c(c1Cc1ccccc1)C(=O)CC(c1ccc(OC)cc1)C2 (configuration not stated) | inactive: -7.84%
CCSc1nc2c([nH]c3ccccc32)c(=O)n1-c1ccc(OC)cc1 | inactive: -6.65%
CC1CCCN(c2ncnc3c2nc2n3CCCCC2)C1 (configuration not stated) | inactive: -3.34%

Compound | activity change, negative = inhibition
CN(C)c1ccc(CNc2nc(-c3ccco3)nn2S(C)(=O)=O)cc1 | inactive: -8.96%
CN(C)c1ccc(NC(=O)Cn2c(SCc3ccc(F)cc3)nc3cccnc32)cc1 | inactive: -3.08%
CCc1ccc(NC(=O)CSC2=Nc3ccccc3C3=NC(CC(=O)NCc4ccc5c(c4)OCO5)C(=O)N23)cc1 (configuration not stated) | inactive: -5.88%
CCCC(=O)Nc1ccc(NC(=O)c2sc3ccccc3c2Cl)cc1 | inactive: -14.5%
COCCn1c(SCC(=O)c2ccccc2)nc2cc(C(=O)NC3CCCC3)ccc2c1=O | inactive: 4.86%
CCc1ccc2nc(N(Cc3cccnc3)C(=O)c3cccs3)sc2c1 | inactive: -19.9%
CC(=O)c1cccc(NC(=O)c2noc3c2CC(C)CC3)c1 (configuration not stated) | inactive: 0.176%
CCOC(=O)CSC1=Nc2ccccc2C2=NC(CCC(=O)NCc3ccccc3)C(=O)N12 (configuration not stated) | inactive: 0.449%
COc1ccc(NC(=O)CN(c2cccc(C)c2C)S(=O)(=O)c2ccccc2)cc1OC | inactive: 3.88%
Cc1cc2c(cc1C)C(c1cccc(OC(C)C)c1)CC(=O)N2 (configuration not stated) | inactive: -12.5%
CCCCN(C)CCCNC(=O)Cn1nc(CC)n2c(cc3sc(C)cc32)c1=O | inactive: -0.64%
COc1cc2c(=O)c(S(=O)(=O)c3ccc(C)cc3)cn(Cc3cccc(C)c3)c2cc1OC | inactive: -0.754%
CC1CN(C(=O)N2CCC(C(=O)NCCC3=CCCCC3)CC2)c2ccccc2O1 (configuration not stated) | inactive: -15.5%
CCCCNC(=O)C1CCCN(c2nnc(C)c3c(C)n(-c4ccc(Cl)cc4)nc23)C1 (configuration not stated) | inactive: -10.7%
O=C(CSc1nnc(-c2cccs2)o1)Oc1ccc(Cl)cc1 | inactive: 1.27%
CC(C)c1ccc(S(=O)(=O)Nc2ccc(O)c(Sc3nc4ccccc4s3)c2)cc1 | inactive: -10.7%
CC(=O)c1ccc(NC(=O)CSc2nccn2Cc2ccco2)cc1 | inactive: -0.667%
CSc1cccc(NC(=O)C2CCN(S(=O)(=O)c3ccc4[nH]c(=O)ccc4c3)CC2)c1 | inactive: -8.32%
CCN(CC)CCN(C(=O)c1ccc(C(=O)OC)cc1)c1nc2ccc(Cl)cc2s1 | inactive: -7.24%
CCOC(=O)C1(C)C=C(Nc2ccc(C)cc2)C(=O)N1c1ccccc1 (configuration not stated) | inactive: 1.43%
COc1cccc(C(=O)N2CCC(c3nc4ccccc4s3)CC2)c1 | inactive: -10.6%
COCCNc1cc(N2CCN(C3CCCCC3)CC2)c2noc3c2c1C(=O)c1ccccc1-3 | inactive: 2.01%
O=C(C1COc2ccccc2O1)N(Cc1cccnc1)c1nc2c(F)cc(F)cc2s1 (configuration not stated) | inactive: 1.08%
Cc1ccc(C(=O)Nc2nnc(SCc3cc(=O)c4c(C)ccc(C)c4[nH]3)s2)cc1 | inactive: 0%
O=C(Nc1ccc2nn(-c3ccc(F)cc3)nc2c1)c1cccc2c(Cl)cccc12 | inactive: 8.09%

Compound | activity change, negative = inhibition
COc1cccc(C(=O)N2CCC(N3CCN(Cc4ccc(F)cc4)C(=O)C3=O)CC2)c1 | inactive: -7.46%
Cc1ccc(Cl)cc1N1CCN(C(=O)c2c(C)oc3ncnc(N4CCOCC4)c23)CC1 | inactive: -3.59%
COC(=O)c1cccc(Nc2c(-c3cc(Br)ccc3O)nc3nc[nH]n23)c1 | inactive: 2.89%
CCOc1ccccc1NC(=O)c1c(NCc2ccc(OC)c(OC)c2OC)sc2c1CCC(C)C2 (configuration not stated) | inactive: 0.1%
CCc1nnc(SCc2nc(-c3ccccc3F)oc2C)c2cc3sccc3n12 | inactive: 3.91%
Cc1cccc(-c2noc(-c3ccc(NC4CCCC4)c([N+](=O)[O-])c3)n2)c1 | inactive: 4.71%
Cc1ccc(OCC(=O)Nc2cccc(C(=O)OCc3cc(=O)n4cc(C)sc4n3)c2)cc1 | inactive: 0%
O=C(CC1N=C2c3ccccc3N=C(SCc3cccc(Cl)c3)N2C1=O)NC1CCCCC1 (configuration not stated) | inactive: 4.73%
COc1ccc(NC(=O)CSc2nnc(-c3nnn(-c4ccc(F)cc4)c3C)o2)cc1 | inactive: -4.11%
COc1cc(OC)c(NC(=O)c2nc(-c3ccncc3)no2)cc1Cl | inactive: 0%
CCCCCNC(=O)C1CCC(Cn2c(=O)c3sccc3n(CC(=O)N3CCCC3)c2=O)CC1 (configuration not stated) | inactive: 9.48%
CCOCN(C(=O)Cn1c(C)nc2ccccc21)c1c(C)cccc1CC | inactive: -12.3%
Cn1c(=NC(=O)c2ccc(F)cc2)sc2cc(Br)ccc21 | inactive: 0.695%
Cc1ccc(Cl)cc1-n1c(=O)cc(N2CCN(c3ccccc3)CC2)[nH]c1=O | inactive: 0.472%
Cc1cc2n(n1)CCCN2C(=O)Nc1ccccc1F | inactive: 3.69%
CCc1ccccc1NC(=O)CC(C)n1nc(C)cc1C (configuration not stated) | inactive: -1.9%
Cc1ccc(N2C(=O)c3n[nH]c(C)c3C2c2ccc(C(C)C)cc2)cc1 (configuration not stated) | inactive: 0.335%
CCOC(=O)c1c(S(=O)(=O)N2CCN(c3ccccc3OC)CC2)c(C)n(C)c1C | inactive: -5.79%
COc1cc(OC)c(NC(=O)NCc2ccc3c(c2)CCN3C(C)=O)cc1Cl | inactive: -10.8%
CC(=O)c1cccc(NC(=O)c2sc3nc4c(cc3c2N)CCCC4)c1 | inactive: -9.35%
O=c1c2cc3c(cc2n(Cc2cccc(F)c2)c(=O)n1Cc1nc(-c2ccccc2)no1)OCO3 | inactive: 1.33%
Cc1ccc(Cl)cc1NC(=O)c1cccc(NC(=O)N2CCSc3ncccc32)c1 | inactive: -5.16%
CCOc1ccc(NC(=O)C2CCCN(c3nnc(-n4c(C)ccc4C)s3)C2)cc1 (configuration not stated) | inactive: -0.622%
CCc1ccc(NCc2cc3ccc(OC)cc3n(CC(=O)Nc3cccc(Cl)c3C)c2=O)cc1 | inactive: -6.12%
COCCN1C(=O)c2[nH]nc(-c3c(C)cc(C)cc3O)c2C1c1cccc(O)c1 (configuration not stated) | inactive: -4.15%

Compound | activity change, negative = inhibition
COc1ccc(S(=O)(=O)N(CCc2ccccc2)CC(=O)NCc2ccccc2)cc1OC | inactive: 13.4%
Cc1cccn2c(=O)c(C(=O)NCCc3ccc(Cl)cc3)cnc12 | inactive: -0.51%
CC(=O)c1ccc(NC(=O)C2CCC(CNS(=O)(=O)c3cccc4nsnc34)CC2)cc1 (configuration not stated) | inactive: -3.71%
CC(C)(C)OC(=O)N1CCC(c2c(C(=O)N3CCN(C(=O)c4ccco4)CC3)cnn2-c2ccc(Cl)cc2)CC1 | inactive: -9.91%
CCc1ccccc1N1C(=O)N(Cc2cccc(Cl)c2)c2ccccc2S1(=O)=O | inactive: -5.32%
Cc1ccc(C(=O)NCc2nnnn2-c2ccc(C)c(C)c2)cc1 | inactive: -22.1%
Cc1ccc(-c2nnc(Nc3ccc(Br)cc3)c3ccccc23)cc1S(=O)(=O)NCc1nc2ccccc2[nH]1 | inactive: -3.83%
CCCN(CCC)C(=O)C1CCCN(c2ncnc3c2nc2n3CCCCC2)C1 (configuration not stated) | inactive: -5.53%
Cc1ccccc1CNC(=O)c1ccc(CN2CC(=O)N3CCCCC3C2=O)cc1 (configuration not stated) | inactive: -9.91%
CCc1nnc2c3ccccc3nc(N3CCN(c4cc(C)ccc4C)CC3)n12 | inactive: 3.75%
COc1ccc(CNC(=O)C(=O)Nc2cc(Cl)ccc2OC)cc1 | inactive: 0.623%
Cc1ccccc1CN1C(=O)c2ccccc2S(=O)c2ccc(C(=O)NCc3ccc4c(c3)OCO4)cc21 (configuration not stated) | inactive: 0.385%
COc1cccc(CNC(=O)CCC(=O)N2CC(C)Sc3ccccc32)c1 (configuration not stated) | inactive: 3.61%
CC(=O)Nc1cc(C(=O)Nc2ccc3c(c2)N(C)C(=O)c2ccccc2S3)ccc1C | inactive: -17.7%
COc1ccc(N2CCN(S(=O)(=O)CCNC(=O)c3c(F)cccc3Cl)CC2)cc1 | inactive: 0.535%
Cc1ccc(S(=O)(=O)c2nnn3c2nc(N2CCC(C(N)=O)CC2)c2cc(Cl)ccc23)cc1C | inactive: 0.795%
Cc1ccc(NS(=O)(=O)c2c(C)nc3sc(C)cn3c2=O)c(C)c1 | inactive: -0.619%
Cc1nc2c(c(C)nn2C(C)(C)C)c(C)c1CCC(=O)Nc1ccc(Br)cc1Br | inactive: 0.465%
CCC(=O)Nc1cc2nn(-c3ccc(C)cc3)nc2cc1C | inactive: 8.06%
Cc1ccc(NC(=O)[C@@H](c2ccccc2)N2Cc3ccccc3C2=O)cc1F | inactive: -17.4%
CCCc1nn2c(=O)cc(COC(=O)c3ccco3)nc2s1 | inactive: -20.5%
COc1ccc(CCNC(=O)Cn2c(=O)c3cccn3c3ccccc32)cc1OC | inactive: -1.22%
